# Laboratory results: the supplement of paper PMC3334620
# Over roughly 33,000 sequences, “E-score (-0.5 to 0.5)” has its median near -0.012; the highest 2% begin near 0.27. This is one part of the list.
# Molecular target: T1, Vhr1 (UniProt P40522)
# T1 sequence: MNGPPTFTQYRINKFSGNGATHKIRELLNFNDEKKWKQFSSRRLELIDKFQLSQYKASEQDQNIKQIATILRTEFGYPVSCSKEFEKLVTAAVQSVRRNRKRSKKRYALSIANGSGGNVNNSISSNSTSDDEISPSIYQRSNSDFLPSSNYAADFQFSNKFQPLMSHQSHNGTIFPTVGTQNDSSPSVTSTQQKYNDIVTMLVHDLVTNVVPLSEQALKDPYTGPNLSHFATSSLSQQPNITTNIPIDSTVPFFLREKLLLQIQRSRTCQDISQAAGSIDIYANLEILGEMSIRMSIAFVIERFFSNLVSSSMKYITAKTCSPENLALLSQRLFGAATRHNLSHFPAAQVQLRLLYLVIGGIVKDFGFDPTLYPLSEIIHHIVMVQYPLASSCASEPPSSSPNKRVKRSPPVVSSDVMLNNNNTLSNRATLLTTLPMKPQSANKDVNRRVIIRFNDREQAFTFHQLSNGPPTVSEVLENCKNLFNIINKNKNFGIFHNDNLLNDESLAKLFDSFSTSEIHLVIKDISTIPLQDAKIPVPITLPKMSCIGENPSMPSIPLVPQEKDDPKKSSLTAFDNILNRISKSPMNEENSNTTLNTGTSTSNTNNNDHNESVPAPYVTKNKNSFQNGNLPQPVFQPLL
# Assay: PBM E-score (8-mer binding enrichment) (E-score (-0.5 to 0.5)); higher = stronger / more preferred TF binding; most listed sequences are background and not binding sites
# Details: protein concentration: 200 nM; construct: GST-full length
# Procedure, shortened: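 Full-length yeast transcription factors or their DNA-binding domains, GST-tagged and expressed with PURExpress, were applied at about 100-200 nM to universal all-10-mer Agilent arrays. These arrays had been made double-stranded by primer extension on fresh or once-stripped slides. Detection used fluorescent anti-GST, normalisation used masliner, and E-scores for ungapped eight-base words pooled with reverse complements came from the Universal PBM Analysis Suite.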
row,Sequence,PBM E-score
1,GTGTGGAA,-0.132
2,CTCTGTTA,0.182
3,AGTAGAGG,-0.129
4,TAACTGTA,0.00513
5,AGTTACGC,-0.211
6,GCCACGAC,0.11
7,CTGACCAG,0.168
8,ATAGACGG,0.00408
9,AGCGAGAG,0.0482
10,ATGTCGTC,-0.034
11,ACTTCGCC,0.00702
12,CGAGTTCA,0.115
13,AAGGATAC,-0.00093
14,GGGCCTAA,-0.243
15,CCTTTACA,-0.259
16,CCACGATA,0.146
17,AAACTGAA,-0.152
18,ACGACCGG,-0.0928
19,AAGGGTTC,-0.0737
20,ACTTATTG,-0.131
21,ATTATGTG,0.249
22,AACAGCCA,0.0303
23,CTCTAATA,-0.136
24,ACCTCGTG,-0.101
25,AAACCCTG,-0.068

row,Sequence,PBM E-score
1,CCCCAGCG,-0.108
2,CACTCGGG,-0.078
3,TACCCCAA,0.0135
4,AGGTGCTG,-0.0578
5,AAAATTAG,-0.105
6,AACGAGAC,-0.063
7,CATACAAA,-0.0286
8,AATACAGT,0.154
9,CTCACGTA,-0.0754
10,AAGTTTAA,-0.367
11,AAAGGGTT,-0.245
12,CGAACGTC,-0.187
13,ACATACAA,0.0236
14,GACCTGCA,0.0231
15,ATGCCTGA,0.0818
16,ATTAGCCC,-0.223
17,CTCCCAAG,-0.131
18,GTCCTTCA,-0.0346
19,CATCCGTC,0.0362
20,AGATTGCC,-0.0927
21,CGACAATA,0.0881
22,TCGCATAA,0.0102
23,GTGATACA,0.163
24,GAATGCCC,-0.118
25,ATGTGGAG,0.055

row,Sequence,PBM E-score
1,CACGCCCG,0.114
2,CCAGATTC,-0.176
3,TCGCAGCA,0.0961
4,GAAACATC,-0.14
5,ACCTAATC,0.212
6,AAAGATAT,0.196
7,GGAAGCAA,-0.304
8,GACACGGC,0.147
9,ATCATTTA,0.132
10,CATAAGGC,0.00616
11,ATTGCGCG,0.125
12,AAGTAATC,0.224
13,CCATGCCA,0.122
14,AGTGAAAG,-0.222
15,CAAGGTCA,-0.199
16,ATTCTCGC,-0.246
17,ATGTGTGA,0.29
18,ATCTTTCC,-0.185
19,GATACGTA,-0.0446
20,CCCGTTTC,-0.169
21,CAGGATAG,0.197
22,AGGTGCCC,-0.234
23,ATGAACAT,0.0812
24,CAAACTAG,-0.0421
25,ATCTTGGC,-0.0511

row,Sequence,PBM E-score
1,GAACAGTC,0.0702
2,AGAAAGAG,-0.23
3,ACTCAGGC,0.259
4,CCTGTCAA,0.0681
5,AGCACCCT,-0.102
6,GTTATGTA,0.0138
7,ATCCATTG,0.127
8,GGCATGGA,-0.00291
9,AGCGCCAG,-0.161
10,CTGAATGC,-0.0924
11,AACATATC,0.174
12,CGGGAGAC,-0.0366
13,GCTCGGGA,-0.0256
14,AGGAGCTG,-0.136
15,AAGGGCGA,-0.0832
16,TCCAGGGA,-0.0164
17,CACACTCC,0.0928
18,ACAGGGCG,0.111
19,ATCCCGTG,0.154
20,CCTGCGAG,0.003
21,GCTAGACA,-0.00423
22,GGATAGAA,-0.064
23,CGGCTGTA,-0.0513
24,CTCCTGAA,-0.102
25,AACCGAAG,-0.125

row,Sequence,PBM E-score
1,AGACGTAA,-0.146
2,AAGATACC,0.17
3,GCCCTGCA,-0.04
4,CGGTTACA,0.0813
5,CGTGATAG,-0.102
6,CATTACCC,-0.0505
7,CATCGCCC,0.108
8,CTAAACTA,-0.13
9,CGCCCAAG,-0.152
10,TCGAATAA,-0.207
11,CCAGACAC,-0.0651
12,CTCGGTCC,0.091
13,AAGGGCGT,-0.168
14,AGGTAACG,-0.0471
15,CATTTTCG,0.0744
16,CACTCTCG,0.07
17,ACAGGCTA,-0.042
18,TGATTAAA,0.0338
19,ACCGAGAT,0.105
20,ATTTTAAG,-0.311
21,AGTAGTGC,0.0273
22,GCCTAAAC,-0.277
23,ATGGCCGA,-0.00719
24,GGCGGCAA,-0.00812
25,TCGGGTAA,0.0048

row,Sequence,PBM E-score
1,CGGCCTGC,-0.203
2,AGCGCGTG,0.0743
3,GCGGAGAC,0.252
4,ATTCCACG,-0.0247
5,TGACACCA,0.213
6,CGGAAGCC,-0.0668
7,AGTGGCGA,0.102
8,GCAACATA,-0.162
9,GTGTCTGA,0.171
10,GCGAAGAA,-0.191
11,GTGTCCTA,0.084
12,CCACCTCC,-0.0821
13,ACTTCCGA,0.0496
14,CGTTCAGC,-0.065
15,GAATACGC,0.0617
16,ACCGTCAA,-0.135
17,AAGCCGAC,-0.00302
18,AGGCCCAC,-0.244
19,AACTTGGA,-0.0693
20,GGGATGAC,0.323
21,CGTCATAG,-0.155
22,GAACATAA,-0.0256
23,TCACCGCA,0.0402
24,CCAGCTGG,0.301
25,AACCGCGA,0.278

row,Sequence,PBM E-score
1,AGGGCGAC,-0.0155
2,AAAATACC,-0.139
3,AAGACCCC,-0.116
4,TAATGGAA,-0.0617
5,CGAATCAC,0.331
6,ACTCACCA,0.378
7,ACGCTGAG,0.0319
8,CTAAGAGC,-0.169
9,AACCTCGA,-0.0999
10,GTGTTCTA,0.013
11,ACGGCGTA,-0.00472
12,ATTTGAGA,-0.0877
13,AAGGAACC,-0.128
14,AAAAGTAT,-0.0337
15,AATCAACC,0.166
16,AGAAGTGC,-0.189
17,AGCAAGCT,-0.105
18,GACTAAGA,0.0912
19,AAGACGTA,-0.15
20,AAGCGGAT,0.0469
21,ATGAGGTA,0.00309
22,TCCGCACA,0.21
23,CGTGGCGA,-0.0547
24,ATAAAAAA,-0.139
25,GGGTACTA,0.214

row,Sequence,PBM E-score
1,AACGTTAG,-0.137
2,CACTCCTA,-0.262
3,CTAAATTC,-0.0442
4,CGGTTCAC,-0.0323
5,CTTCTAAA,-0.306
6,TAGACTGA,-0.0371
7,CGATCCAG,0.132
8,GTTCGGCA,-0.0789
9,ATCAGTTA,0.124
10,CTTTTCTA,-0.292
11,AGGTGGAT,0.087
12,ACGATGAT,0.105
13,TATTCGGA,0.0415
14,GAACCGGA,0.0763
15,CGACCGAC,0.0852
16,TGGGCGAA,0.104
17,AGGATGCA,-0.0788
18,ATCCGTTA,0.0444
19,AGTAATCA,0.303
20,CAAAGACA,-0.0396
21,ACGTCCTA,-0.0914
22,GAACGCAC,0.0695
23,GCTATCAC,-0.09
24,GTACGCGA,0.0404
25,TGGCCACA,0.179

row,Sequence,PBM E-score
1,ACAAATTG,0.00167
2,ATATCCGG,0.173
3,CCTGGTTA,-0.005
4,TCTCAGCA,0.0768
5,CGATCGCA,0.178
6,AGGTCCGC,-0.156
7,AAAGCTAA,-0.232
8,GGACCTGA,-0.0228
9,ATGCAGGG,0.0235
10,CCACTCGC,0.0654
11,CAGTCGGG,0.133
12,TACGCACA,0.0148
13,CGCTGGGC,0.0647
14,ACAAATAA,0.0817
15,CAAACATA,0.101
16,ATGTTCGG,0.144
17,ACGTGATC,0.0326
18,CTATACTA,0.14
19,AGACCAAA,-0.012
